These are yes or no findings as the source states them, for the method shown. In cells and extracts the contact can be indirect. Some binding calls cover weakened binding; strength is not graded here. Sequences can lack the tags named with a protein.

The chains behind the UniProt entries cited, without tags or fusion partners.
UniProt P35568: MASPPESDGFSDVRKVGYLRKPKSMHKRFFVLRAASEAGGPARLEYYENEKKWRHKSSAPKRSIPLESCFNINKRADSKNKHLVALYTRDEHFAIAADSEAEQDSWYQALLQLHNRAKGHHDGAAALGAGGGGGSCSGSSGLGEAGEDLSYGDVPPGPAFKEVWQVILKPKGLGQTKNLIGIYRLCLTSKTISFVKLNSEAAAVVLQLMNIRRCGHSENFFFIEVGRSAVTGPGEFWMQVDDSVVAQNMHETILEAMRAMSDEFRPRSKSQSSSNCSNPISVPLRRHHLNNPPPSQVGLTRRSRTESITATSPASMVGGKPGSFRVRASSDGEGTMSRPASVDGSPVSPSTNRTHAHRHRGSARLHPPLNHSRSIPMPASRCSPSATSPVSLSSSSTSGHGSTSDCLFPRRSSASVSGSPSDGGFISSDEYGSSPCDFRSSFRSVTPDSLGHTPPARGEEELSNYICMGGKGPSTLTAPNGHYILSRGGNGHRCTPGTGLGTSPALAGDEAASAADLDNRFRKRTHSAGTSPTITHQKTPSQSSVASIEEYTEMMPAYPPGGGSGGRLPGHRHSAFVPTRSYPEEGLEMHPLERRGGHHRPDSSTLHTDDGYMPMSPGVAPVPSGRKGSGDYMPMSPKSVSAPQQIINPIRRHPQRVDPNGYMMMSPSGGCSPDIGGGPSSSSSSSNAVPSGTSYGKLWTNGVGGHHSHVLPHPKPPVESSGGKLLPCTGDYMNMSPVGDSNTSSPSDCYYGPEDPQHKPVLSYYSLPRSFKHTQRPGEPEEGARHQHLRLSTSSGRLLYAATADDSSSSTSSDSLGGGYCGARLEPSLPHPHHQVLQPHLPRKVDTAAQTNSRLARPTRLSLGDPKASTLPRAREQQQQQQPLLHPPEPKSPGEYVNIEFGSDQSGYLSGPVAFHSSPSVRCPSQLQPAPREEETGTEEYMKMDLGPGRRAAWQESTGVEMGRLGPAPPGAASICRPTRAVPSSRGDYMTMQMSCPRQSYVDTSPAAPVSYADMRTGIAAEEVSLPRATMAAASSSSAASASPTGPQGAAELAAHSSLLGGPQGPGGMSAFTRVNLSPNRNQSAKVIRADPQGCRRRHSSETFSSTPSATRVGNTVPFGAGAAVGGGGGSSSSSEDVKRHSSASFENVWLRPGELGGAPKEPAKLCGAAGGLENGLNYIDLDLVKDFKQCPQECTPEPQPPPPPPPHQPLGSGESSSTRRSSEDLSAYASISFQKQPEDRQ

Assay [1] concerns the target T1, Flag-tagged USP18 (ubiquitin-specific protease 18), full length (human) (UniProt Q9UMW8).
T1 sequence: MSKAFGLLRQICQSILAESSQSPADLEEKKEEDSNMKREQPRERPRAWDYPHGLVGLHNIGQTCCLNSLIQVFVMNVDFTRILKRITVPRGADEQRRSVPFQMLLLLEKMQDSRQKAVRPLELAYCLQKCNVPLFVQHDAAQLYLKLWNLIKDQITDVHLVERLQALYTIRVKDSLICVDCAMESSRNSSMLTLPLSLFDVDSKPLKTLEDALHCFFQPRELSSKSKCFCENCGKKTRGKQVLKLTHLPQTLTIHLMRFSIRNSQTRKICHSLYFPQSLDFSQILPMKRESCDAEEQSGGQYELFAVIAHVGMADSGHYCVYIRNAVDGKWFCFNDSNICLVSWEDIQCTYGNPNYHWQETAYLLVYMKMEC
The assay can be described thus: co-IP; cells transfected with the Flag-tagged bait only (293T for Figures 1C and 1D; cell line not named for Figures 2C, 2E, 2F, 3C); anti-Flag M2 affinity gel; immunoblot for the endogenous partner. On the technique in general: In western blotting, separated proteins are transferred to a membrane and probed.

Assay [2] has as its target T1, Flag-tagged USP18 (ubiquitin-specific protease 18), full length (human). In words: co-IP; 293T cells co-transfected with both tagged partners; RIPA lysate on anti-Flag M2 affinity gel; immunoblot with anti-Myc or anti-GFP and anti-Flag.

“endogenous IRS1 (from UniProt P35568 1-1242)”: the binding entry in assay [1] is given as “no binding”.

B1: Myc-tagged IRS4 (1-400) (domain or fragment, UniProt O14654 1-400)
chain: MASCSFTRDQATRRLRGAAAAAAAALAAVVTTPLLSSGTPTALIGTGSSCPGAMWLSTATGSRSDSESEEEDLPVGEEVCKRGYLRKQKHGHRRYFVLKLETADAPARLEYYENARKFRHSVRAAAAAAAAAASGAAIPPLIPPRRVITLYQCFSVSQRADARYRHLIALFTQDEYFAMVAENESEQESWYLLLSRLILESKRRRCGTLGAQPDGEPAALAAAAAAEPPFYKDVWQVIVKPRGLGHRKELSGVFRLCLTDEEVVFVRLNTEVASVVVQLLSIRRCGHSEQYFFLEVGRSTVIGPGELWMQVDDCVVAQNMHELFLEKMRALCADEYRARCRSYSISIGAHLLTLLSARRHLGLVPLEPGGWLRRSRFEQFCHLRAIGDGEDEMLFTRRFV
Consider B1, for which the binding result in assay [2] is given as “binds”.

B2: YFP-tagged IRS4 (401-1257) (domain or fragment, UniProt O14654 401-1257)
chain: TPSEPVAHSRRGRLHLPRGRRSRRAVSVPASFFRRLAPSPARPRHPAEAPNNGARLSSEVSGSGSGNFGEEGNPQGKEDQEGSGGDYMPMNNWGSGNGRGSGGGQGSNGQGSSSHSSGGNQCSGEGQGSRGGQGSNGQGSGGNQCSRDGQGTAGGHGSGGGQRPGGGHGSGGGQGPGDGHGSGGGKNSGGGKGSGSGKGSDGDGERGKSLKKRSYFGKLTQSKQQQMPPPPPPPPPPPPAGGTGGKGKSGGRFRLYFCVDRGATKECKEAKEVKDAEIPEGAARGPHRARAFDEDEDDPYVPMRPGVATPLVSSSDYMPMAPQNVSASKKRHSRSPFEDSRGYMMMFPRVSPPPAPSPPKAPDTNKEDDSKDNDSESDYMFMAPGAGAIPKNPRNPQGGSSSKSWSSYFSLPNPFRSSPLGQNDNSEYVPMLPGKFLGRGLDKEVSYNWDPKDAASKPSGEGSFSKPGDGGSPSKPSDHEPPKNKAKRPNRLSFITKGYKIKPKPQKPTHEQREADSSSDYVNMDFTKRESNTPAPSTQGLPDSWGIIAEPRQSAFSNYVNVEFGVPFPNPANDLSDLLRAIPRANPLSLDSARWPLPPLPLSATGSNAIEEEGDYIEVIFNSAMTPAMALADSAIRYDAETGRIYVVDPFSECCMDISLSPSRCSEPPPVARLLQEEEQERRRPQSRSQSFFAAARAAVSAFPTDSLERDLSPSSAPAVASAAEPTLALSQVVAAASALAAAPGIGAAAAAAGFDSASARWFQPVANAADAEAVRGAQDVAGGSNPGAHNPSANLARGDNQAGGAAAAAAAPEPPPRSRRVPRPPEREDSDNDDDTHVRMDFARRDNQFDSPKRGR
With B2, the binding result in assay [2] is reported as “binds”.

B3: YFP-tagged IRS4 (1-334) (domain or fragment, UniProt O14654 1-334)
chain: MASCSFTRDQATRRLRGAAAAAAAALAAVVTTPLLSSGTPTALIGTGSSCPGAMWLSTATGSRSDSESEEEDLPVGEEVCKRGYLRKQKHGHRRYFVLKLETADAPARLEYYENARKFRHSVRAAAAAAAAAASGAAIPPLIPPRRVITLYQCFSVSQRADARYRHLIALFTQDEYFAMVAENESEQESWYLLLSRLILESKRRRCGTLGAQPDGEPAALAAAAAAEPPFYKDVWQVIVKPRGLGHRKELSGVFRLCLTDEEVVFVRLNTEVASVVVQLLSIRRCGHSEQYFFLEVGRSTVIGPGELWMQVDDCVVAQNMHELFLEKMRALCAD
In the case of B3, the binding entry in assay [2] was “no binding”.

B4: endogenous IRS2 (protein, UniProt Q9Y4H2 1-1338)
chain: MASPPRHGPPGPASGDGPNLNNNNNNNNHSVRKCGYLRKQKHGHKRFFVLRGPGAGGDEATAGGGSAPQPPRLEYYESEKKWRSKAGAPKRVIALDCCLNINKRADAKHKYLIALYTKDEYFAVAAENEQEQEGWYRALTDLVSEGRAAAGDAPPAAAPAASCSASLPGALGGSAGAAGAEDSYGLVAPATAAYREVWQVNLKPKGLGQSKNLTGVYRLCLSARTIGFVKLNCEQPSVTLQLMNIRRCGHSDSFFFIEVGRSAVTGPGELWMQADDSVVAQNIHETILEAMKALKELFEFRPRSKSQSSGSSATHPISVPGARRHHHLVNLPPSQTGLVRRSRTDSLAATPPAAKCSSCRVRTASEGDGGAAAGAAAAGARPVSVAGSPLSPGPVRAPLSRSHTLSGGCGGRGSKVALLPAGGALQHSRSMSMPVAHSPPAATSPGSLSSSSGHGSGSYPPPPGPHPPLPHPLHHGPGQRPSSGSASASGSPSDPGFMSLDEYGSSPGDLRAFCSHRSNTPESIAETPPARDGGGGGEFYGYMTMDRPLSHCGRSYRRVSGDAAQDLDRGLRKRTYSLTTPARQRPVPQPSSASLDEYTLMRATFSGSAGRLCPSCPASSPKVAYHPYPEDYGDIEIGSHRSSSSNLGADDGYMPMTPGAALAGSGSGSCRSDDYMPMSPASVSAPKQILQPRAAAAAAAAVPSAGPAGPAPTSAAGRTFPASGGGYKASSPAESSPEDSGYMRMWCGSKLSMEHADGKLLPNGDYLNVSPSDAVTTGTPPDFFSAALHPGGEPLRGVPGCCYSSLPRSYKAPYTCGGDSDQYVLMSSPVGRILEEERLEPQATPGPSQAASAFGAGPTQPPHPVVPSPVRPSGGRPEGFLGQRGRAVRPTRLSLEGLPSLPSMHEYPLPPEPKSPGEYINIDFGEPGARLSPPAPPLLASAASSSSLLSASSPASSLGSGTPGTSSDSRQRSPLSDYMNLDFSSPKSPKPGAPSGHPVGSLDGLLSPEASSPYPPLPPRPSASPSSSLQPPPPPPAPGELYRLPPASAVATAQGPGAASSLSSDTGDNGDYTEMAFGVAATPPQPIAAPPKPEAARVASPTSGVKRLSLMEQVSGVEAFLQASQPPDPHRGAKVIRADPQGGRRRHSSETFSSTTTVTPVSPSFAHNPKRHNSASVENVSLRKSSEGGVGVGPGGGDEPPTSPRQLQPAPPLAPQGRPWTPGQPGGLVGCPGSGGSPMRRETSAGFQNGLNYIAIDVREEPGLPPQPQPPPPPLPQPGDKSSWGRTRSLGGLISAVGVGSTGGGCGGPGPGALPPANTYASIDFLSHHLKEATIVKE
Turning to B4, in assay [1], the binding result is “no binding”.

The values above are taken from publication PMC5739690.
